Some of the results follow. Binding of human transcription factors and regulators to the viral nucleoprotein by AlphaScreen, crude cell-free proteins, amounts not normalised, one pass. Fold of the Venus control; higher = more signal. No active / inactive call. Single-pass screen; sequences are the whole Swiss-Prot entries looked up by name.
B1: NR1D2, Q14995 (protein)
chain: MEVNAGGVIAYISSSSSASSPASCHSEGSENSFQSSSSSVPSSPNSSNSDTNGNPKNGDLANIEGILKNDRIDCSMKTSKSSAPGMTKSHSGVTKFSGMVLLCKVCGDVASGFHYGVHACEGCKGFFRRSIQQNIQYKKCLKNENCSIMRMNRNRCQQCRFKKCLSVGMSRDAVRFGRIPKREKQRMLIEMQSAMKTMMNSQFSGHLQNDTLVEHHEQTALPAQEQLRPKPQLEQENIKSSSPPSSDFAKEEVIGMVTRAHKDTFMYNQEQQENSAESMQPQRGERIPKNMEQYNLNHDHCGNGLSSHFPCSESQQHLNGQFKGRNIMHYPNGHAICIANGHCMNFSNAYTQRVCDRVPIDGFSQNENKNSYLCNTGGRMHLVCPMSKSPYVDPHKSGHEIWEEFSMSFTPAVKEVVEFAKRIPGFRDLSQHDQVNLLKAGTFEVLMVRFASLFDAKERTVTFLSGKKYSVDDLHSMGAGDLLNSMFEFSEKLNALQLSDEEMSLFTAVVLVSADRSGIENVNSVEALQETLIRALRTLIMKNHPNEASIFTKLLLKLPDLRSLNNMHSEELLAFKVHP
B2: ZC3H12A, Q5D1E8 (protein)
chain: MSGPCGEKPVLEASPTMSLWEFEDSHSRQGTPRPGQELAAEEASALELQMKVDFFRKLGYSSTEIHSVLQKLGVQADTNTVLGELVKHGTATERERQTSPDPCPQLPLVPRGGGTPKAPNLEPPLPEEEKEGSDLRPVVIDGSNVAMSHGNKEVFSCRGILLAVNWFLERGHTDITVFVPSWRKEQPRPDVPITDQHILRELEKKKILVFTPSRRVGGKRVVCYDDRFIVKLAYESDGIVVSNDTYRDLQGERQEWKRFIEERLLMYSFVNDKFMPPDDPLGRHGPSLDNFLRKKPLTLEHRKQPCPYGRKCTYGIKCRFFHPERPSCPQRSVADELRANALLSPPRAPSKDKNGRRPSPSSQSSSLLTESEQCSLDGKKLGAQASPGSRQEGLTQTYAPSGRSLAPSGGSGSSFGPTDWLPQTLDSLPYVSQDCLDSGIGSLESQMSELWGVRGGGPGEPGPPRAPYTGYSPYGSELPATAAFSAFGRAMGAGHFSVPADYPPAPPAFPPREYWSEPYPLPPPTSVLQEPPVQSPGAGRSPWGRAGSLAKEQASVYTKLCGVFPPHLVEAVMGRFPQLLDPQQLAAEILSYKSQHPSE
B3: RNF2, Q99496 (protein)
chain: MSQAVQTNGTQPLSKTWELSLYELQRTPQEAITDGLEIVVSPRSLHSELMCPICLDMLKNTMTTKECLHRFCADCIITALRSGNKECPTCRKKLVSKRSLRPDPNFDALISKIYPSRDEYEAHQERVLARINKHNNQQALSHSIEEGLKIQAMNRLQRGKKQQIENGSGAEDNGDSSHCSNASTHSNQEAGPSNKRTKTSDDSGLELDNNNAAMAIDPVMDGASEIELVFRPHPTLMEKDDSAQTRYIKTSGNATVDHLSKYLAVRLALEELRSKGESNQMNLDTASEKQYTIYIATASGQFTVLNGSFSLELVSEKYWKVNKPMELYYAPTKEHK
B4: TCF15, Q12870 (protein)
chain: MAFALLRPVGAHVLYPDVRLLSEDEENRSESDASDQSFGCCEGPEAARRGPGPGGGRRAGGGGGAGPVVVVRQRQAANARERDRTQSVNTAFTALRTLIPTEPVDRKLSKIETVRLASSYIAHLANVLLLGDSADDGQPCFRAAGSAKGAVPAAADGGRQPRSICTFCLSNQRKGGGRRDLGGSCLKVRGVAPLRGPRR
B5: ERC1, Q8IUD2 (protein)
chain: MYGSARSVGKVEPSSQSPGRSPRLPRSPRLGHRRTNSTGGSSGSSVGGGSGKTLSMENIQSLNAAYATSGPMYLSDHENVGSETPKSTMTLGRSGGRLPYGVRMTAMGSSPNIASSGVASDTIAFGEHHLPPVSMASTVPHSLRQARDNTIMDLQTQLKEVLRENDLLRKDVEVKESKLSSSMNSIKTFWSPELKKERALRKDEASKITIWKEQYRVVQEENQHMQMTIQALQDELRIQRDLNQLFQQDSSSRTGEPCVAELTEENFQRLHAEHERQAKELFLLRKTLEEMELRIETQKQTLNARDESIKKLLEMLQSKGLSAKATEEDHERTRRLAEAEMHVHHLESLLEQKEKENSMLREEMHRRFENAPDSAKTKALQTVIEMKDSKISSMERGLRDLEEEIQMLKSNGALSTEEREEEMKQMEVYRSHSKFMKNKVEQLKEELSSKEAQWEELKKKAAGLQAEIGQVKQELSRKDTELLALQTKLETLTNQFSDSKQHIEVLKESLTAKEQRAAILQTEVDALRLRLEEKETMLNKKTKQIQDMAEEKGTQAGEIHDLKDMLDVKERKVNVLQKKIENLQEQLRDKEKQMSSLKERVKSLQADTTNTDTALTTLEEALAEKERTIERLKEQRDRDEREKQEEIDNYKKDLKDLKEKVSLLQGDLSEKEASLLDLKEHASSLASSGLKKDSRLKTLEIALEQKKEECLKMESQLKKAHEAALEARASPEMSDRIQHLEREITRYKDESSKAQAEVDRLLEILKEVENEKNDKDKKIAELERQVKDQNKKVANLKHKEQVEKKKSAQMLEEARRREDNLNDSSQQLQDSLRKKDDRIEELEEALRESVQITAEREMVLAQEESARTNAEKQVEELLMAMEKVKQELESMKAKLSSTQQSLAEKETHLTNLRAERRKHLEEVLEMKQEALLAAISEKDANIALLELSSSKKKTQEEVAALKREKDRLVQQLKQQTQNRMKLMADNYEDDHFKSSHSNQTNHKPSPDQIIQPLLELDQNRSKLKLYIGHLTTLCHDRDPLILRGLTPPASYNLDDDQAAWENELQKMTRGQLQDELEKGERDNAELQEFANAILQQIADHCPDILEQVVNALEESS
B6: POU5F1B, Q06416 (protein)
chain: MAGHLASDFAFSPPPGGGGDGPWGAEPGWVDPLTWLSFQGPPGGPGIGPGVGPGSEVWGIPPCPPPYELCGGMAYCGPQVGVGLVPQGGLETSQPESEAGVGVESNSNGASPEPCTVPPGAVKLEKEKLEQNPEKSQDIKALQKELEQFAKLLKQKRITLGYTQADVGLILGVLFGKVFSQKTICRFEALQLSFKNMCKLRPLLQKWVEEADNNENLQEICKAETLMQARKRKRTSIENRVRGNLENLFLQCPKPTLQISHIAQQLGLEKDVVRVWFCNRRQKGKRSSSDYAQREDFEAAGSPFSGGPVSFPPAPGPHFGTPGYGSPHFTALYSSVPFPEGEVFPPVSVITLGSPMHSN
B7: NOBOX, O60393 (protein)
chain: MALLLTLTSPDLEGTWDTRDKDGFKAQEGPPLAVPEFPVCGLYRIYGVCGSFSSFFIIRCSLCALETLKSPQHDPLEIPEQSLKLIPLVSGKRELTRGQKAGEKPLAAGPGEEELLRGSAPHAQDTQSEELPPSCTISGEKKPPAVSGEATGADAGRLCPPPRSRAPHKDRTLARSRPQTQGEDCSLPVGEVKIGKRSYSPAPGKQKKPNAMGLAPTSSPGAPNSARATHNPVPCGSGRGPCHLANLLSTLAQSNQNRDHKQGPPEVTCQIRKKTRTLYRSDQLEELEKIFQEDHYPDSDKRREIAQTVGVTPQRIMVKGAGSLVAGWSGGGPTIETLELQSERSAVAWVWFQNRRAKWRKMEKLNGKESKDNPAAPGPASSQCSSAAEILPAVPMEPKPDPFPQESPLDTFPEPPMLLTSDQTLAPTQPSEGAQRVVTPPLFSPPPVRRADLPFPLGPVHTPQLMPLLMDVAGSDSSHKDGPCGSWGTSITLPPPCSYLEELEPQDYQQSNQPGPFQFSQAPQPPLFQSPQPKLPYLPTFPFSMPSSLTLPPPEDSLFMFPCGPSGGTSQGYCPGASSGQILMQPPAGNIGTASWSDPCLPELPFPGPFCPQALGHPPGGDGYFPDLFPTPCPQALGRQPSSALSWMPEGARPGTGPLLSKAKEEPPAASLDQPSALEEARGDDKNSHVP
B8: MSGN1, A6NI15 (protein)
chain: MDNLRETFLSLEDGLGSSDSPGLLSSWDWKDRAGPFELNQASPSQSLSPAPSLESYSSSPCPAVAGLPCEHGGASSGGSEGCSVGGASGLVEVDYNMLAFQPTHLQGGGGPKAQKGTKVRMSVQRRRKASEREKLRMRTLADALHTLRNYLPPVYSQRGQPLTKIQTLKYTIKYIGELTDLLNRGREPRAQSA
B9: THRB, P10828 (protein)
chain: MTPNSMTENGLTAWDKPKHCPDREHDWKLVGMSEACLHRKSHSERRSTLKNEQSSPHLIQTTWTSSIFHLDHDDVNDQSVSSAQTFQTEEKKCKGYIPSYLDKDELCVVCGDKATGYHYRCITCEGCKGFFRRTIQKNLHPSYSCKYEGKCVIDKVTRNQCQECRFKKCIYVGMATDLVLDDSKRLAKRKLIEENREKRRREELQKSIGHKPEPTDEEWELIKTVTEAHVATNAQGSHWKQKRKFLPEDIGQAPIVNAPEGGKVDLEAFSHFTKIITPAITRVVDFAKKLPMFCELPCEDQIILLKGCCMEIMSLRAAVRYDPESETLTLNGEMAVTRGQLKNGGLGVVSDAIFDLGMSLSSFNLDDTEVALLQAVLLMSSDRPGLACVERIEKYQDSFLLAFEHYINYRKHHVTHFWPKLLMKVTDLRMIGACHASRFLHMKVECPTELFPPLFLEVFED
B10: BCL11B, Q9C0K0 (protein)
chain: MSRRKQGNPQHLSQRELITPEADHVEAAILEEDEGLEIEEPSGLGLMVGGPDPDLLTCGQCQMNFPLGDILVFIEHKRKQCGGSLGACYDKALDKDSPPPSSRSELRKVSEPVEIGIQVTPDEDDHLLSPTKGICPKQENIAGPCRPAQLPAVAPIAASSHPHSSVITSPLRALGALPPCLPLPCCSARPVSGDGTQGEGQTEAPFGCQCQLSGKDEPSSYICTTCKQPFNSAWFLLQHAQNTHGFRIYLEPGPASSSLTPRLTIPPPLGPEAVAQSPLMNFLGDSNPFNLLRMTGPILRDHPGFGEGRLPGTPPLFSPPPRHHLDPHRLSAEEMGLVAQHPSAFDRVMRLNPMAIDSPAMDFSRRLRELAGNSSTPPPVSPGRGNPMHRLLNPFQPSPKSPFLSTPPLPPMPPGGTPPPQPPAKSKSCEFCGKTFKFQSNLIVHRRSHTGEKPYKCQLCDHACSQASKLKRHMKTHMHKAGSLAGRSDDGLSAASSPEPGTSELAGEGLKAADGDFRHHESDPSLGHEPEEEDEEEEEEEEELLLENESRPESSFSMDSELSRNRENGGGGVPGVPGAGGGAAKALADEKALVLGKVMENVGLGALPQYGELLADKQKRGAFLKRAAGGGDAGDDDDAGGCGDAGAGGAVNGRGGGFAPGTEPFPGLFPRKPAPLPSPGLNSAAKRIKVEKDLELPPAALIPSENVYSQWLVGYAASRHFMKDPFLGFTDARQSPFATSSEHSSENGSLRFSTPPGDLLDGGLSGRSGTASGGSTPHLGGPGPGRPSSKEGRRSDTCEYCGKVFKNCSNLTVHRRSHTGERPYKCELCNYACAQSSKLTRHMKTHGQIGKEVYRCDICQMPFSVYSTLEKHMKKWHGEHLLTNDVKIEQAERS

Target: nucleoprotein N of Crimean-Congo hemorrhagic fever virus
Test: AlphaScreen luminescence signal relative to Venus negative control (fold); higher = stronger binding to CCHFV N
Procedure: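 AlphaScreen binding of cell-free made, FLAG-GST-tagged human transcription factors and regulators (crude translation products) to biotinylated N protein; signal as fold of the FLAG-GST-Venus control. One pass.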

**Q.** How did the AlphaScreen luminescence signal turn out when B1 was run?
**A.** The AlphaScreen luminescence signal was 1.86.

**Q.** B2 was tested. Which AlphaScreen luminescence signal did it give?
**A.** Its AlphaScreen luminescence signal is 5.91.

**Q.** Which AlphaScreen luminescence signal does the source give for B3 here?
**A.** The AlphaScreen luminescence signal was 2.09.

**Q.** For B4, which AlphaScreen luminescence signal is on record?
**A.** Its AlphaScreen luminescence signal is 3.86.

**Q.** With B5 as the binder, how does the AlphaScreen luminescence signal read?
**A.** The AlphaScreen luminescence signal was 1.35.

**Q.** How did the AlphaScreen luminescence signal turn out when B6 was run?
**A.** The AlphaScreen luminescence signal was 2.09.

**Q.** For B7, which AlphaScreen luminescence signal is on record?
**A.** The AlphaScreen luminescence signal was 2.47.

**Q.** B8 was tested. Which AlphaScreen luminescence signal did it give?
**A.** The AlphaScreen luminescence signal was 2.88.

**Q.** Which AlphaScreen luminescence signal does the source give for B9 here?
**A.** Its AlphaScreen luminescence signal is 6.88.

**Q.** B10 was tested. Which AlphaScreen luminescence signal did it give?
**A.** The AlphaScreen luminescence signal was 2.84.

— the supplement of paper PMC12423691
